The other results are listed elsewhere or left out.
B1: chr22:46256563:46263322:-|CDS|ENSG00000130943|control|control|control (ssRNA)
RNA: GGGAGUUCUACAGUCCGACGAUCAAUUCGGUUUUACUUGUCGAACCCAGAAGACUUCAUUCCCUUUCAUGCAGUUUCUCAGGUAGAUCACAUUAUGAGGAUAAUUUUGGGUUUCCUGUUAUUUCUGACAAUUUUGAAGACCCUCAACAGAGGAUUGAGCAUCA
B2: ENSG00000107863:be:win_1001|CDS|ENSG00000107863|bound_else_gene|NA|bound_elsewhere_windowed (ssRNA)
RNA: GGGAGUUCUACAGUCCGACGAUCCAGGCUCCAGAUCACUGGAACCUUCUGGAAUUUUACUUAAGUCUGGAAAUUACAGUGGACAUUCUGAUGGAAUCUCAAGCAGCAGAUCUCAAGCUGUGGAGGCUCCCUCUGUAUCUGUUACAACAGAGGAUUGAGCAUCA
B3: ENSG00000100401:stop:overlap|stop_codon|ENSG00000100401|stop_codon|NA|stop_codon (ssRNA)
RNA: GGGAGUUCUACAGUCCGACGAUCGCGCCCUGGAAUCCUGCUCCUUCGCCCGCCACAGUCUGCUGCAGACGCUGUACAAGGUCUAGACUCAAAGCCUCUCCCAUCCCUUGGCCUGGACCAGUGAGCUGGGGAGGGACUCGGAUGCAACAGAGGAUUGAGCAUCA
B4: chr1:162783069:162783171:+|3pUTR|ENSG00000162733|unk|FALSE|unique (ssRNA)
RNA: GGGAGUUCUACAGUCCGACGAUCUGAAAGUAGUUCAAAUUUGAAUUAGAAGAAUGAAGCUAGGACUUAUUUGGAAAAGGAGAUAGAAAAAAAAUGAUCAGAAACUGUGGGGCCUUAUUACCUUUGCAGUAAGUUAUCUUCUUCCAACAGAGGAUUGAGCAUCA
B5: chrX:65741840:65741941:+|3pUTR|ENSG00000147065|msi1|total|mutant (ssRNA)
RNA: GGGAGUUCUACAGUCCGACGAUCAAAUUGUUUUUGGAGGGGUUUAUGCUCAAUCCAUGUUCUAUUUCAGUGCCAAUAAAAUUCCGGAAGACUUCACAGUGACUCAAUCGUUCUUUGUGGUAUGAGUGGGCCGCUGUAAGAUAUCAACAGAGGAUUGAGCAUCA
B6: chrX:52062232:52062664:-|CDS|ENSG00000187243|control|control|control (ssRNA)
RNA: GGGAGUUCUACAGUCCGACGAUCGGCCACGUGGAGAGCUGGCGUCAGCAGUGGCACCAAUGGAGGGGCCAGCACCAGCGUCCUAGAUGGCCCCAGCACCAGCUCCACCAUCCGGACCAGAAAUGCUGCCAGAGCUGGCGCCAGCAACAGAGGAUUGAGCAUCA
B7: chr3:170361105:170361226:+|CDS|ENSG00000136603|unk|FALSE|bound_elsewhere (ssRNA)
RNA: GGGAGUUCUACAGUCCGACGAUCAAGCUCAUUGGCCCAGUUAAAGGAAACUGGCAGUGCCUUUGAAGUGGAGCAUGAAUGCCUAGGCAAAUGUCAGGGUUUAUUUGCACCCCAGUUUUAUGUUCAGCCUGAUGCUCCGUGUAUCAACAGAGGAUUGAGCAUCA
B8: chr22:39520512:39520623:+|5pUTR|ENSG00000128272|unk|FALSE|bound_elsewhere (ssRNA)
RNA: GGGAGUUCUACAGUCCGACGAUCUCUAUAAAGGGCCGGCGGGCGGCCACGGCAGCCAUUUCUACUUUGCCCGCCCACAGAUGUAGUUUUCUCUGCGCGUGUGCGUUUUCCCUCCUCCCCGCCCUCAGGGUCCACGGCCACCAUCAACAGAGGAUUGAGCAUCA
B9: chr7:101137467:101137738:+|3pUTR|ENSG00000106366|msi1|total|mutant (ssRNA)
RNA: GGGAGUUCUACAGUCCGACGAUCGUUAAAAGAUGGUAAACCAGAUCUGUCUCCAAGACCUUGGCCUCUCCUUGGAGGACCUUCCGGUCAAACUCCCCCGUCUCCACCUGAGACCCUGGGAGAGAAGUUUGAAGCACAACUCCCCAACAGAGGAUUGAGCAUCA
B10: chr3:73066602:73066703:+|3pUTR|ENSG00000163605|unk|FALSE|unique (ssRNA)
RNA: GGGAGUUCUACAGUCCGACGAUCACUAUUUUGUAGAAUGAAUGUUUAUGAAGCUGAUAUGAGACCAUCUCAGAAGAACCAAGUAGGUUCCUUGACCUUUUGCUUGCUUUUCUGAACAUUGUGAAUAUUACACAUGUCUUUCUACAACAGAGGAUUGAGCAUCA
B11: ENSG00000070961:be:win_3351|CDS|ENSG00000070961|bound_else_gene|NA|bound_elsewhere_windowed (ssRNA)
RNA: GGGAGUUCUACAGUCCGACGAUCGAUUCGAGUGGUGAAUGCAUUUCGUAGUUCUUUAUAUGAAGGGUUAGAAAAACCGGAAUCAAGAAGUUCGAUUCACAACUUUAUGACACAUCCUGAGUUUAGGAUAGAAGAUUCAGAGCCCAACAGAGGAUUGAGCAUCA
B12: ENSG00000070961:be:win_3751|3pUTR|ENSG00000070961|bound_else_gene|NA|bound_elsewhere_windowed (ssRNA)
RNA: GGGAGUUCUACAGUCCGACGAUCUAUUCUUGUCUUUGGACUUCAACAGAAGACACACUUGUACGAAUGUAGAUUUAUUUUUUUAAAAAAAAAAAAGCAAAGCUUUCUGCCAGACUGAGGGUGCUUUUUGGGGGGUGGGAGAAACAACAGAGGAUUGAGCAUCA
B13: chr12:120764159:120764260:-|3pUTR|ENSG00000157837|msi1|FALSE|unique (ssRNA)
RNA: GGGAGUUCUACAGUCCGACGAUCACACACACAUAGAUAUAUAUGAAUAAACAAAAAUGAAAUCCUGCUAAGAUCACGCUGUGUAGCUGACAGGGGCUUGCUGUCGUUUUGAGCAUGUCGAGCAGUUUACUGUGGCUUCCUUGUCAACAGAGGAUUGAGCAUCA
B14: ENSG00000136451:be:win_1251|CDS|ENSG00000136451|bound_else_gene|NA|bound_elsewhere_windowed (ssRNA)
RNA: GGGAGUUCUACAGUCCGACGAUCAGUGGCAGCUGCAAUGAGCAUGAGAAGUCCAGUAAAUGUUUCAAGUGCAGUUAACAUAACCAGCCCAAUGAACAUAGGGCAUCCUGUAACUAUAACCAGUCCAUUAUCCAUGACCUCUCCCAACAGAGGAUUGAGCAUCA

Biological target: MSI1 full-length (mouse, UniProt Q61474 1-362)
Assay: nsRBNS (natural sequence RNA bind-n-seq); RBNS binding buffer (assumed for nsRBNS): 25 mM Tris pH 7.5, 150 mM KCl, 3 mM MgCl2, 0.01% Triton X-100, 500 ug/ml BSA, 20 U/ml SUPERase-In, 4 C; UNK is unkempt and MSI1 is Musashi-1; names of the RNAs are library labels; protein concentration not given here; high values mean tight binding

Chain of UniProt Q61474 (Q61474 whole entry): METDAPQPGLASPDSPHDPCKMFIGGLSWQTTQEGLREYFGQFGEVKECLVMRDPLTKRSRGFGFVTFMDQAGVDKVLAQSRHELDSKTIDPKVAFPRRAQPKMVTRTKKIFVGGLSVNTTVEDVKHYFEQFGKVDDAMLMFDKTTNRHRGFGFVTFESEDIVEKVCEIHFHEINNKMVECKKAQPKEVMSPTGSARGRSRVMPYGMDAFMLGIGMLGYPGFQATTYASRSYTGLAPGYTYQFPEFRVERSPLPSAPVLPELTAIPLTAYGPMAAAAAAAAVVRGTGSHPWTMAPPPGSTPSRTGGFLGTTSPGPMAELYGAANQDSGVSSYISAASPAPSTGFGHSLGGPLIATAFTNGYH

| Binder | binding signal [enrichment R] |
| --- | --- |
| B1 | 0.369 |
| B2 | 0.493 |
| B3 | 0.362 |
| B4 | 1.62 |
| B5 | 0.205 |
| B6 | 0.399 |
| B7 | 0.332 |
| B8 | 0.692 |
| B9 | 0.337 |
| B10 | 0.282 |
| B11 | 0.984 |
| B12 | 0.889 |
| B13 | 1.84 |
| B14 | 0.559 |

Source: article PMC12136788
